About 230 (0.21%) of roughly 110,000 compounds showed an effect of 50% or more. The list shows a part of the results.
The compounds below were run against DPAP1 (Plasmodium falciparum, UniProt Q8IIJ9) (assay: primary screen, percent inhibition; read by cleavage of a fluorogenic dipeptide substrate; higher = more effect of the substance).
Design: species or system P. falciparum D10 trophozoite lysates; single well
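Further: 30 min substrate incubation versus DMSO and 10 µM JCP410 controls.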

Chain of DPAP1 (Q8IIJ9 whole entry, looked up): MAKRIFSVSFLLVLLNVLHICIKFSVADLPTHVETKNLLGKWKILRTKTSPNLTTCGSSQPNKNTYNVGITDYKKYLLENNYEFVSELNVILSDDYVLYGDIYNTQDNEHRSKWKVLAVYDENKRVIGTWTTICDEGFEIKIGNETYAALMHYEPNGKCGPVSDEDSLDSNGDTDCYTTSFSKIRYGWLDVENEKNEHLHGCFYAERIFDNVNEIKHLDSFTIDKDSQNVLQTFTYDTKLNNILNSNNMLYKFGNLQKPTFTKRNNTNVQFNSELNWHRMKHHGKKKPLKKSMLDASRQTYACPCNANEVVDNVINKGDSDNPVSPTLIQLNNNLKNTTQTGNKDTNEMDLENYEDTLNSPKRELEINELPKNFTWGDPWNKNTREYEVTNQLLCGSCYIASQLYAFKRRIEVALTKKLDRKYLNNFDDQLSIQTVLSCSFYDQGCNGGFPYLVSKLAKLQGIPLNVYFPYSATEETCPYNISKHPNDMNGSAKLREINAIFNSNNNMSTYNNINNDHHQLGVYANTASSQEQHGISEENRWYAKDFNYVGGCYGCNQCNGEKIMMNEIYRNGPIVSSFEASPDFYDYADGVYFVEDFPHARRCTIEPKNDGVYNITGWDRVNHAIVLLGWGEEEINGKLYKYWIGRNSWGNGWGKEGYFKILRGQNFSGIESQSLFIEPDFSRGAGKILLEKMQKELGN

Structure (SMILES)	% Inhibition @ 10 uM
COc1ccc(CNc2ncnc3c2cnn3C)cc1	-0.95%
Cc1ccc(CNC(=O)CCC(=O)n2nc(C)c3ccccc32)cc1	3.84%
CC(NC(=O)c1ccccc1)c1nc2ccccc2n1Cc1ccccc1 (stereo not drawn)	-0.551%
COc1ccc(-c2csc(N3CCN(c4nc(-c5ccccc5)cs4)CC3)n2)cc1	-0.834%
C=C(C)Cn1c(CCNC(=O)COc2ccccc2)nc2ccccc21	3.49%
COc1ccc(N/C(=N\C(C)=O)Nc2nc(C)cc(C)n2)cc1	3.79%
CC1CCN(C(=O)CSc2nnc(CNC(=O)c3ccccc3F)o2)CC1	-7.21%
CCc1ncc(C(O)(c2ccccc2)c2ccc(C)cc2)n1C (stereo not drawn)	-9.94%
Cc1cc2nc(SCC(=O)Nc3ccc4c(c3)OCO4)[nH]c2cc1C	15.7%
O=C(c1noc2c1CCCCC2)N1CCN(c2ccccn2)CC1	-9.57%
O=[N+]([O-])c1ccc(Cl)cc1CN1CCc2ccccc2C1	1.55%
Cc1noc(NS(=O)(=O)c2ccc(NC(=O)C(C)Oc3ccc(C(C)(C)C)cc3)cc2)c1C (stereo not drawn)	1.65%
COc1cccc(OC)c1C(=O)Nc1ccncc1	0.889%
CCc1nnc2sc(-c3ccccc3Cl)nn12	0.635%
CC(=O)c1ccc(S(=O)(=O)N2CCCCC2)cc1	-2.42%
COc1cc(C(=O)NCCC(=O)NCc2ccc3c(c2)OCO3)cc(OC)c1OC	-2.26%
O=C(NCc1ccc(F)cc1)c1noc2c1CCc1ccccc1-2	-9.28%
Cn1c(=O)c2c(nc(Cl)n2CC(=O)NC(C)(C)C)n(C)c1=O	0.611%
CCOc1ccccc1-n1c(C)cc(/C=C2/C(=N)N3C=CSC3=NC2=O)c1C	2.25%
Cc1ccc[n+](CC(=O)N2CCCCC2)c1C	3.72%
CCOC(=O)c1c(NC(=O)c2nc(SCC)ncc2Cl)sc(C)c1C	-1.11%
O=C(CC(=O)c1ccc([N+](=O)[O-])cc1)Nc1ccccc1Cl	-2.66%
CC(=O)c1ccc(N2CCN(Cc3ccc(C)cc3C)CC2)cc1	-5.11%
N#C/C(=C\c1ccc([N+](=O)[O-])cc1)c1nc(-c2ccc(Br)cc2)cs1	-2.51%
CCOc1ccc(NC(=O)c2ccc(S(=O)(=O)N3CCCCC3C)cc2)cc1 (stereo not drawn)	-1.59%
CCOC(=O)/C(C#N)=C/c1c(Oc2ccc(Cl)c(C)c2)nc2c(C)cccn2c1=O	5.21%

Structure (SMILES)	% Inhibition @ 10 uM
O=C1CC(c2ccc(C(F)(F)F)cc2)C2=C(CC(c3ccc(F)cc3)CC2=O)N1 (stereo not drawn)	1.31%
Cc1nc2ncnn2c(C)c1CCC(=O)NC(C)CCc1ccco1 (stereo not drawn)	-8.02%
C=CCn1c(SCC(=O)Nc2ccccc2)nc2scc(-c3ccc(C)o3)c2c1=O	-9.58%
Cc1ccc(C2CC(=O)C(/C=N/CCN3CCN(C(=O)c4ccccc4)CC3)=C(O)C2)cc1 (stereo not drawn)	0.121%
C=CCc1cc(/C=C2/NC(=O)NC2=O)cc(OCC)c1OCc1ccc(Cl)c(Cl)c1	-3.06%
CCc1ccccc1NC(=O)CSC1=C(C#N)C(c2ccccc2)CC(=O)N1 (stereo not drawn)	-1.06%
O=C(Nc1ccc(Nc2ccccc2)cc1)C1CC1c1ccccc1 (stereo not drawn)	-0.807%
CC(C)OC(=O)c1cccnc1SCc1cc(=O)n2ccccc2n1	0.387%
CCC(CO)Nc1ncnc2c1cnn2C (stereo not drawn)	2.4%
COC(=O)Nc1nc2sc3c(c2s1)CCCC3	3.01%
O=C(c1c(Cl)cccc1Cl)N1CCN(Cc2ccccc2)CC1	1.67%
O=C(OCC1c2ccccc2-c2ccccc21)N1CCOCC1	-2.18%
Cc1nn(-c2ccccc2)c2nc(C3CC3)cc(C(=O)O)c12	4.9%
C1CC(NC2CC2)CCN1	6.56%
COc1ccc(/C=C/C2=CCN(C)CC2)cc1	-6.06%
COc1ccccc1NC(=O)c1ccc(N)cc1C(=O)O	5.17%
COc1ccc(N2CCN(C(=O)c3ccc(N(C)S(=O)(=O)c4ccccc4)cc3)CC2)cc1	-11.1%
Cc1oc(-c2cccs2)nc1CSCC(=O)NCc1ccccc1Cl	-4.71%
COc1ccc2nc(SC(=O)c3ccccc3Cl)nc(C)c2c1	30.9%
CC(Cc1ccc(F)cc1)N1CCN(C=O)CC1 (stereo not drawn)	-0.0648%
COc1cc(/C=C(\C#N)c2nc3ccccc3s2)cc(OC)c1OC	-1.93%
CCN1CCC(N2CCCC3CCCCC32)CC1 (stereo not drawn)	-1.81%
CN(Cc1ccccc1)Cn1c(=S)oc2ccccc21	7.66%
Cc1ccc(NC(=O)c2ccc([N+](=O)[O-])cc2Cl)c([N+](=O)[O-])c1	-3.26%
Cc1ccccc1-c1nc(CN2CCCC(C(=O)NCCCSC3CCCCC3)C2)c(C)o1 (stereo not drawn)	0.689%
COc1ccc(C(=O)N2N=C3CC(C)(C)OCC3C2c2ccccc2)cc1 (stereo not drawn)	-3.28%

Structure (SMILES)	% Inhibition @ 10 uM
Cc1nc2ccn(Cc3ccco3)c(=O)c2cc1C(=O)NCCCc1ccccc1	1.28%
CCOC(=O)C1(C2(O)C(=O)c3ccccc3C2=O)CCCC1=O (stereo not drawn)	24.4%
CC(=O)Nc1ccc(CN2CCC3(C=Cc4ccccc43)CC2)cc1	1.74%
COCCn1c(N2CCN(CCO)CC2)nc2c1c(=O)[nH]c(=O)n2C	0.635%
CCCCN(CCCC)C(=O)C1CCN(S(=O)(=O)c2c(C)noc2/C=C/c2cccs2)CC1	0.458%
CCOC(=O)C1=C(CN2CCN(CC)CC2)NC(=O)NC1c1ccc(OC)cc1 (stereo not drawn)	-4.46%
O=C(CCSCCC(=O)Nc1ccc2c(c1)OCO2)Nc1ccc2c(c1)OCO2	-1.42%
COc1ccccc1CNC(=O)c1ccc(NC(=O)C(C)C)cc1	-4.02%
COCCN1C(=O)c2ccccc2C(C(=O)NCc2ccc3c(c2)OCO3)C1c1cccs1 (stereo not drawn)	1.36%
CCOC(=O)c1cnn2c(C)cc(-c3ccc(F)cc3)nc12	-3.33%
CN1CCC(NCC(c2ccccc2)c2ccccc2)CC1	3.68%
O=C(NCc1cccnc1)c1nn2c(c1Cl)NC(c1ccccc1)CC2C(F)(F)F (stereo not drawn)	4.86%
C=C(C)CN(CC)Cc1ccc(C(=O)O)cc1	-4.75%
C[C@H](NC(=O)CCc1ccccc1)c1ccccc1	4.22%
CCO/C(O)=C1/C(C)=Nc2ncnn2C1c1sccc1C (stereo not drawn)	0.279%
CC(=O)N1C(=O)/C(=C\c2cccnc2)N=C1S	-2.15%
CC(=O)N(C)c1ccc(NC(=O)COc2ccc(Cl)cc2)cc1	9.41%
COc1ccc(OCc2nc(-c3ccccc3C)no2)cc1	-6.71%
O=C(NCCCCNC(=O)c1ccc(Br)cc1)c1ccc(Br)cc1	15.8%
CC1(C)CC(=O)c2c(O)cc(=O)n(-c3ccc(Cl)cc3)c2C1	-6.08%
CC(C)(C)c1ccc(C2C(C(=O)c3cc4ccccc4o3)=C(O)C(=O)N2CCCn2ccnc2)cc1 (stereo not drawn)	-3.69%
Cc1c(C(=O)Nc2ccccc2)cnn1-c1ccccc1	3.53%
O=C(Nc1cccc2ccccc12)C1CCCCN1S(=O)(=O)c1ccccc1 (stereo not drawn)	2.65%
Cc1cccc(-c2nc(CSCC(=O)N3CCOCC3)c(C)o2)c1	-6.64%
Cc1ccc(NC(=O)[C@@H]2C3C=CC(O3)[C@@H]2C(=O)O)cc1 (stereo partly drawn)	9.94%
CCc1ccc(-c2nnc(O)c3ccccc23)cc1	3.15%

Structure (SMILES)	% Inhibition @ 10 uM
CCO/C(O)=C1\C(CC)=NC2=C(C(=O)CCC2)C1c1ccc(O)c(OC)c1 (stereo not drawn)	0.736%
O=C(CC1CCCC1)NCc1cn2ccsc2n1	4.14%
CCC(C)NC(=O)C1CCCCN1S(=O)(=O)c1ccc(C(C)(C)C)cc1 (stereo not drawn)	-0.972%
O=C(NCC1CCCO1)C1CCN(Cc2cnn(-c3ccccc3)c2-n2cccc2)CC1 (stereo not drawn)	2.27%
COc1ccc(-c2cnc(NCc3ccc(C(F)(F)F)cc3)n2C)cc1	-2.91%
C=CCO/C(O)=C1\C(C)=Nc2nnnn2C1c1ccccc1OCC (stereo not drawn)	-3.37%
Nc1c(C(=O)c2ccccc2)sc2nccc(Nc3ccccc3)c12	0.878%
Cc1ccc(F)cc1NC(=O)c1sc2nc3c(cc2c1N)CCC3	-1.24%
Cc1cccc(/C=C\c2nc(O)c3ccccc3n2)c1	-7.83%
Cc1ccc(C(=O)Nc2cccc(Cl)c2C)o1	-10.8%
COc1cccc(C2C3=C(O)CCCC3=NC(C)=C2C(=O)Nc2ccc(Br)cn2)c1 (stereo not drawn)	1.4%
CC(C)C[C@H](NC(=O)[C@@H]1CCCN1C(=O)OC(C)(C)C)C(=O)NCC#N	0.174%
Cc1ccc(C(=O)N/C(=C\c2cccs2)C(=O)N2CCCC(C)C2)cc1C (stereo not drawn)	0.777%
O=C(CSc1nc2ccccc2o1)Nc1ccc(Br)cn1	0.0719%
CCn1c(=N)n(CC(=O)c2ccc(Cl)cc2)c2ccccc21	5.63%
COc1ccc(-c2ccc3c(N)c(C(=O)NCc4ccc(F)cc4)sc3n2)cc1	2.76%
O=c1c2ccccc2nc(CSc2nnnn2-c2ccccc2)n1-c1ccccc1	4.73%
Cc1ccc2nc(Cl)cc(SCC(=O)NCc3ccc4c(c3)OCO4)c2c1	2.73%
N=C(N)/N=C(\N)N1N=CCC1c1ccccc1 (stereo not drawn)	-6.23%
CCc1nnc(NC(=O)CSc2nc3c(C)cccc3[nH]2)s1	0.611%
CCOC(=O)c1c(NC(=O)c2ccccc2Br)sc2c1CCCC2	2.47%
Cc1ccccc1OCC(=O)Nc1ccc(Br)cc1	2.5%
O=C(NCc1ccc2c(c1)OCO2)c1cncc(Br)c1	-5.54%
Cc1cccc(NC(=O)CN2C(=O)S/C(=C\c3ccc(N4CCOCC4)cc3C)C2=O)c1	0.528%
